Experimental findings from article PMC7595112, “Ketohexokinase-A acts as a nuclear protein kinase that mediates fructose-induced metastasis in breast cancer” (Nature Communications, 2020) are described below.

Chains of the proteins cited; added tags and fusions are not shown.
UniProt O95863: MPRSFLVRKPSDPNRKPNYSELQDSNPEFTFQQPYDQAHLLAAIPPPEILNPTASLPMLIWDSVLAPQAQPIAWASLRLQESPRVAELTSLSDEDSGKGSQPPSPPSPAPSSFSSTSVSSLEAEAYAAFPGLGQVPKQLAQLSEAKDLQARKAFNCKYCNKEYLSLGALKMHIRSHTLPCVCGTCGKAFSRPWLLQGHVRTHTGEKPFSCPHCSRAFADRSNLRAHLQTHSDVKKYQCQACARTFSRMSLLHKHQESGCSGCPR
UniProt Q14974: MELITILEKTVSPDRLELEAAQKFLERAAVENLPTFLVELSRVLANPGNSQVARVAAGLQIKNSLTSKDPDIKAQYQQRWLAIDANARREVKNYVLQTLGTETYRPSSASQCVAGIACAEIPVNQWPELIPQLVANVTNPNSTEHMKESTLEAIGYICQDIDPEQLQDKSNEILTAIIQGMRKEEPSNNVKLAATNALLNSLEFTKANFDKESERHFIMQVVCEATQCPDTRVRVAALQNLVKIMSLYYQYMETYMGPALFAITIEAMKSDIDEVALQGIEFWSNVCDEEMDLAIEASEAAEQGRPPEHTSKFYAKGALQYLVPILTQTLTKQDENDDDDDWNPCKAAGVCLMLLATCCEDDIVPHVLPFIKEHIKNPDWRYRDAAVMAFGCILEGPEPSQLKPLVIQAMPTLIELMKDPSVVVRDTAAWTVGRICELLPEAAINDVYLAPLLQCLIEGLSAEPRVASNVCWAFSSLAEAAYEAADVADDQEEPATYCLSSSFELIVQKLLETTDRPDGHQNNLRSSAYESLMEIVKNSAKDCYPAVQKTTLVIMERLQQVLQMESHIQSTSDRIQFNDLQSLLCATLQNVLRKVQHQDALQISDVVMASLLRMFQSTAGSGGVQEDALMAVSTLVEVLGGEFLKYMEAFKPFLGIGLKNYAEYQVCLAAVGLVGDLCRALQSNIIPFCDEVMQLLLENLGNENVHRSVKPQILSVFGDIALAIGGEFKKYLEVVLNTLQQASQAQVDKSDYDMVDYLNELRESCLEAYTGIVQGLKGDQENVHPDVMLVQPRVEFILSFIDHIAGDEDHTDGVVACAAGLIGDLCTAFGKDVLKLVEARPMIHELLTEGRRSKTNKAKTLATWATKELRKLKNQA

For assay [1], the target named is T1, S25-phosphorylated YWHAH, endogenous (fructose-treated MDA-MB-231 cells) (human (endogenous in MDA-MB-231)) (UniProt Q04917).
T1 sequence (chain, phosphoserine at 25): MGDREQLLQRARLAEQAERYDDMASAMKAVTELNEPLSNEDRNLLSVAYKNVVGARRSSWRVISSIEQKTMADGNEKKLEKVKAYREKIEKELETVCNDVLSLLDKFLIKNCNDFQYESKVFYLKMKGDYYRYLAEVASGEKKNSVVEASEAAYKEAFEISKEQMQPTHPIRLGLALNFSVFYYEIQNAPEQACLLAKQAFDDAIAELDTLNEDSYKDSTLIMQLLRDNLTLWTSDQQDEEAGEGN
The experiment in a line: co-IP; MDA-MB-231, 5 mM fructose for 24 h, KHK-A level varied; binding analysis between YWHAH and endogenous SLUG, SNAIL or TWIST.

Assay [2] deals with T2, tyrosine 3-monooxygenase/tryptophan 5-monooxygenase activation protein Eta (YWHAH), endogenous (human (endogenous in MCF-7 and MDA-MB-231)) (UniProt Q04917).
T2 sequence: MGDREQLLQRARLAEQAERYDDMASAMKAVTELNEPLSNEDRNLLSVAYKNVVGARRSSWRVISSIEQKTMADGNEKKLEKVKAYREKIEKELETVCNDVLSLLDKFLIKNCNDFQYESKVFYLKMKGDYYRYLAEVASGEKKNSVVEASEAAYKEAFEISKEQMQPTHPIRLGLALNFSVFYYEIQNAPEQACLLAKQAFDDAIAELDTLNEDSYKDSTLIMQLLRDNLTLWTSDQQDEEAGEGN
Described as above.

The target in the next assay is T3, Myc-KHK-A_L83A (human) (UniProt P50053).
T3 sequence: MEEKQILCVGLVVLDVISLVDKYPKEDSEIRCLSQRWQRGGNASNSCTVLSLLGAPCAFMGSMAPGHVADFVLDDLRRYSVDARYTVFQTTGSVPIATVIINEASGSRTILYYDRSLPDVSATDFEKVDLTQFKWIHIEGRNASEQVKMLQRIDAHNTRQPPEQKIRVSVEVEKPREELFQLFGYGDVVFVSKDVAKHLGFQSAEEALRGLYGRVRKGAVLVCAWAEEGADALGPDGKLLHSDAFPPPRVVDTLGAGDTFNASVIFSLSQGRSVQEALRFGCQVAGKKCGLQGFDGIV
The experiment in a line: co-IP; MDA-MB-231 transfected with Myc-KHK-A or Myc-KHK-A_L83A (with LRRC59 siRNA in Fig. 4f), 5 mM fructose for 8 h; anti-Myc immunoprecipitation, blots for LRRC59 and KPNB1.

For assay [3], the target named is T4, His-KHK-A expressed in breast-cancer cells (human) (UniProt P50053).
T4 sequence: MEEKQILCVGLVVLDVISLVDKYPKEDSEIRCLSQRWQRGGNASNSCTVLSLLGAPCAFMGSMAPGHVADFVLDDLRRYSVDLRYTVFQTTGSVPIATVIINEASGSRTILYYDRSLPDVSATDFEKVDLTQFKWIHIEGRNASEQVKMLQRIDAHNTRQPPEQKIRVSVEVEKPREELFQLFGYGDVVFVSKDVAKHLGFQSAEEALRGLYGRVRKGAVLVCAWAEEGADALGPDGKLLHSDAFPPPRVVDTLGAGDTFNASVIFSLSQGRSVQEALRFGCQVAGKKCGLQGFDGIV
The experiment in a line: co-IP + pull-down; MDA-MB-231 co-transfected with His-KHK-A and FLAG-YWHAH WT or D21A; co-precipitation cross-checked with anti-FLAG and nickel-NTA affinity gels.

In assay [4] the target is T5, His(6)-KHK-A purified from HEK293T cells (human) (UniProt P50053).
T5 sequence: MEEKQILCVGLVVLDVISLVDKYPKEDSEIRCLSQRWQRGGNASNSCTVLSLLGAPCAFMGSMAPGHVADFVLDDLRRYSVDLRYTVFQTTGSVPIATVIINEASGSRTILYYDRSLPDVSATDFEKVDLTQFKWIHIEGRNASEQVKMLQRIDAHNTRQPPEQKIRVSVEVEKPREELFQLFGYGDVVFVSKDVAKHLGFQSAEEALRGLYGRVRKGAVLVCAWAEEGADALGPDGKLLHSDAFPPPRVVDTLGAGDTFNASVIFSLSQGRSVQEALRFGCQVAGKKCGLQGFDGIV
The experiment in a line: pull-down; purified FLAG-YWHAH WT or D21A and KHK-A co-incubated for 1 h; KHK-A pulled down with nickel-NTA, bound YWHAH immunoblotted; both purified. (Immunoblotting shows a protein as a band on a membrane.)

Assay [5] concerns the target T6, ketohexokinase-A (KHK-A), endogenous (human (endogenous in MCF-7 or MDA-MB-231)) (UniProt P50053).
T6 sequence: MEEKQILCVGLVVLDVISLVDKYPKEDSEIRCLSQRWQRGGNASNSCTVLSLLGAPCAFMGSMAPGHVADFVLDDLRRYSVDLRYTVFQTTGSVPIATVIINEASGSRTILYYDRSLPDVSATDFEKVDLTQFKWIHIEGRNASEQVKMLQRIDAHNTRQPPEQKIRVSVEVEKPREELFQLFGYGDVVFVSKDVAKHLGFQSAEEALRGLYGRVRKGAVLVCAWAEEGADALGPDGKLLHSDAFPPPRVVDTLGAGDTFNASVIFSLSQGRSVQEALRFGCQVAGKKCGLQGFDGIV
Nature of the assay: co-IP; cells incubated with 5 mM fructose for 8 h; lysates immunoprecipitated with IgG, anti-KHK-A or anti-KHK-C, immunoblotted with anti-LRRC59 or anti-YWHAH.

Assay [6] addresses T7, ketohexokinase-C (KHK-C), endogenous (human (endogenous in MCF-7 or MDA-MB-231)) (UniProt P50053).
T7 sequence: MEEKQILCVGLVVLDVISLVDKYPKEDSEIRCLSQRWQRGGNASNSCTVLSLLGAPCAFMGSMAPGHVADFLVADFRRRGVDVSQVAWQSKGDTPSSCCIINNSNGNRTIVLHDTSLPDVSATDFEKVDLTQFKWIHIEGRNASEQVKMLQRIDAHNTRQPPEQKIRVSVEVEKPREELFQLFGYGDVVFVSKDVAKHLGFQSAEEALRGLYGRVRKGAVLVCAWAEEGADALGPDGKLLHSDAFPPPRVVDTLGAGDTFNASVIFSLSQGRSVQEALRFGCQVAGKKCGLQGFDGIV
Described as above.

Assay [7] addresses T8, S25-phosphorylated wild-type YWHAH expressed in fructose-treated MDA-MB-231 cells (human) (UniProt Q04917).
T8 sequence (chain, phosphoserine at 25): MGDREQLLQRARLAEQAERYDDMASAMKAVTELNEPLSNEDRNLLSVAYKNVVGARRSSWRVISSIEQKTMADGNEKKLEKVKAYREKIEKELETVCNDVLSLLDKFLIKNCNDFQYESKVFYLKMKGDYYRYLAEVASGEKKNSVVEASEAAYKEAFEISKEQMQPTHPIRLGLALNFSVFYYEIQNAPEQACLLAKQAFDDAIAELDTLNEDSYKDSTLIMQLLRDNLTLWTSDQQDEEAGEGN
Nature of the assay: co-IP; MDA-MB-231 expressing YWHAH or YWHAH_S25A, 5 mM fructose for 24 h; co-precipitation of SLUG with YWHAH.

Assay [8] concerns the target T9, YWHAH_S25A expressed in MDA-MB-231 cells (human) (UniProt Q04917).
T9 sequence: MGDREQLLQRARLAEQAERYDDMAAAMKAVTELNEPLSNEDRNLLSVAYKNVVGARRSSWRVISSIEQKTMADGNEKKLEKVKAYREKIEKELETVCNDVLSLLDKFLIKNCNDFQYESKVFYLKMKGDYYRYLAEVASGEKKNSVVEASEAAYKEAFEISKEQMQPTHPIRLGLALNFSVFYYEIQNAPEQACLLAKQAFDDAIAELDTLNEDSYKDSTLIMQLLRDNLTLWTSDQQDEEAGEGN
Described as above.

These are yes or no findings as the source states them, for the method shown. For some assays here: Binding seen in cells or lysates may run through a third protein. Some entries that bind do so weakly or less than the wild type. For some assays here: Sequences can lack the tags named with a protein.

For “SNAIL, endogenous (from UniProt O95863 1-264)”, the binding entry in assay [1] and in [2] was “binds” each time. Consider “KPNB1, endogenous (from UniProt Q14974 1-876)”, for which the binding entry with Myc-KHK-A_L83A (human) is given as “no binding”.

B1: FLAG-YWHAH WT expressed in MDA-MB-231 cells (protein, UniProt Q04917 1-246)
chain: MGDREQLLQRARLAEQAERYDDMASAMKAVTELNEPLSNEDRNLLSVAYKNVVGARRSSWRVISSIEQKTMADGNEKKLEKVKAYREKIEKELETVCNDVLSLLDKFLIKNCNDFQYESKVFYLKMKGDYYRYLAEVASGEKKNSVVEASEAAYKEAFEISKEQMQPTHPIRLGLALNFSVFYYEIQNAPEQACLLAKQAFDDAIAELDTLNEDSYKDSTLIMQLLRDNLTLWTSDQQDEEAGEGN
Regarding B1, the binding result in assay [3] was “binds”.

B2: Purified FLAG-YWHAH D21A (protein, UniProt Q04917 1-246)
chain: MGDREQLLQRARLAEQAERYADMASAMKAVTELNEPLSNEDRNLLSVAYKNVVGARRSSWRVISSIEQKTMADGNEKKLEKVKAYREKIEKELETVCNDVLSLLDKFLIKNCNDFQYESKVFYLKMKGDYYRYLAEVASGEKKNSVVEASEAAYKEAFEISKEQMQPTHPIRLGLALNFSVFYYEIQNAPEQACLLAKQAFDDAIAELDTLNEDSYKDSTLIMQLLRDNLTLWTSDQQDEEAGEGN
On to B2, for which, in assay [4], the binding entry is reported as “no binding”.

B3: FLAG-YWHAH D21A expressed in MDA-MB-231 cells (protein, UniProt Q04917 1-246)
chain: MGDREQLLQRARLAEQAERYADMASAMKAVTELNEPLSNEDRNLLSVAYKNVVGARRSSWRVISSIEQKTMADGNEKKLEKVKAYREKIEKELETVCNDVLSLLDKFLIKNCNDFQYESKVFYLKMKGDYYRYLAEVASGEKKNSVVEASEAAYKEAFEISKEQMQPTHPIRLGLALNFSVFYYEIQNAPEQACLLAKQAFDDAIAELDTLNEDSYKDSTLIMQLLRDNLTLWTSDQQDEEAGEGN
As for B3, in assay [3], the binding entry was “no binding”.

B4: tyrosine 3-monooxygenase/tryptophan 5-monooxygenase activation protein Eta (YWHAH), endogenous (protein, UniProt Q04917 1-246)
chain: MGDREQLLQRARLAEQAERYDDMASAMKAVTELNEPLSNEDRNLLSVAYKNVVGARRSSWRVISSIEQKTMADGNEKKLEKVKAYREKIEKELETVCNDVLSLLDKFLIKNCNDFQYESKVFYLKMKGDYYRYLAEVASGEKKNSVVEASEAAYKEAFEISKEQMQPTHPIRLGLALNFSVFYYEIQNAPEQACLLAKQAFDDAIAELDTLNEDSYKDSTLIMQLLRDNLTLWTSDQQDEEAGEGN
Regarding B4, the results for the binding result in assay [5] and in [6] were “binds” and “no binding”, respectively.

B5: SLUG, endogenous (protein, UniProt O43623 1-268)
chain: MPRSFLVKKHFNASKKPNYSELDTHTVIISPYLYESYSMPVIPQPEILSSGAYSPITVWTTAAPFHAQLPNGLSPLSGYSSSLGRVSPPPPSDTSSKDHSGSESPISDEEERLQSKLSDPHAIEAEKFQCNLCNKTYSTFSGLAKHKQLHCDAQSRKSFSCKYCDKEYVSLGALKMHIRTHTLPCVCKICGKAFSRPWLLQGHIRTHTGEKPFSCPHCNRAFADRSNLRAHLQTHSDVKKYQCKNCSKTFSRMSLLHKHEESGCCVAH
In the case of B5, the binding result in assay [7] is given as “binds”; in assay [8], “no binding”; in assay [1], “binds”.
